Residue numbers refer to the chain shown, from its start. In names and notes the source's numbering stands. ± gives the standard deviation of the averaged measurements. Laboratory Escherichia coli strains with one amino-acid change in an essential protein, pooled on minimal glucose agar with carbenicillin or gentamicin at twice the control MIC (plus kanamycin and chloramphenicol for the plasmids), 48 h. Fold change of barcode share against drug-free plates; higher = less susceptible. Active = above 20 in both replicates (the paper's putatively resistant). '<' = one read or none on drug, '>' = one read or none on a drug-free plate. Shares are relative, so most strains fall below 1 when a few take over. Listed are strains with at least 15 reads on both drug-free plates, and hits; most hits rest on fewer reference reads. Replicate rank correlation about 0.5. Edits are read from barcodes.

In the data set the target is Escherichia coli (laboratory strain). The experiment in a line: barcode share on antibiotic plates over drug-free plates; higher = less susceptible. The settings on record: antibiotic: gentamicin; 2× MIC (MIC 0.45 µg/mL). The protocol: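 A pool of E. coli strains, each edited to carry one amino-acid change in an essential protein, was grown for 48 h on minimal glucose agar with or without antibiotic; strain barcodes were sequenced; mean of two replicates.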

B1: ftsI F550W (protein)
chain: MKAAAKTQKPKRQEEHANFISWRFALLCGCILLALAFLLGRVAWLQVISPDMLVKEGDMRSLRVQQVSTSRGMITDRSGRPLAVSVPVKAIWADPKEVHDAGGISVGDRWKALANALNIPLDQLSARINANPKGRFIYLARQVNPDMADYIKKLKLPGIHLREESRRYYPSGEVTAHLIGFTNVDSQGIEGVEKSFDKWLTGQPGERIVRKDRYGRVIEDISSTDSQAAHNLALSIDERLQALVYRELNNAVAFNKAESGSAVLVDVNTGEVLAMANSPSYNPNNLSGTPKEAMRNRTITDVFEPGSTVKPMVVMTALQRGVVRENSVLNTIPYRINGHEIKDVARYSELTLTGVLQKSSNVGVSKLALAMPSSALVDTYSRFGLGKATNLGLVGERSGLYPQKQRWSDIERATFSFGYGLMVTPLQLARVYATIGSYGIYRPLSITKVDPPVPGERVFPESIVRTVVHMMESVALPGGGGVKAAIKGYRIAIKTGTAKKVGPDGRYINKYIAYTAGVAPASQPRFALVVVINDPQAGKYYGGAVSAPVWGAIMGGVLRTMNIEPDALTTGDKNEFVINQGEGTGGRS
B1: the “fold change of barcode share” value was less than 0.0153.

B2: ftsW I124Q (protein)
chain: MRLSLPRLKMPRLPGFSILVWISTALKGWVMGSREKDTDSLIMYDRTLLWLTFGLAAIGFIMVTSASMPIGQRLTNDPFFFAKRDGVYLILAFILAIITLRLPMEFWQRYSATMLLGSIILLMQVLVVGSSVKGASRWIDLGLLRIQPAELTKLSLFCYIANYLVRKGDEVRNNLRGFLKPMGVILVLAVLLLAQPDLGTVVVLFVTTLAMLFLAGAKLWQFIAIIGMGISAVVLLILAEPYRIRRVTAFWNPWEDPFGSGYQLTQSLMAFGRGELWGQGLGNSVQKLEYLPEAHTDFIFAIIGEELGYVGVVLALLMVFFVAFRAMSIGRKALEIDHRFSGFLACSIGIWFSFQALVNVGAAAGMLPTKGLTLPLISYGGSSLLIMSTAIMMLLRIDYETRLEKAQAFVRGSR
B2: the “fold change of barcode share” value was less than 0.0175.

B3: ftsB L8W (protein)
chain: MGKLTLLWLAILVWLQYSLWFGKNGIHDYTRVNDDVAAQQATNAKLKARNDQLFAEIDDLNGGQEALEERARNELSMTRPGETFYRLVPDASKRAQSAGQNNR
B3: the “fold change of barcode share” value is less than 0.0143.

B4: ftsA V57Q (protein)
chain: MIKATDRKLVVGLEIGTAKVAALVGEVLPDGMVNIIGVGSCPSRGMDKGGVNDLESQVKCVQRAIDQAELMADCQISSVYLALSGKHISCQNEIGMVPISEEEVTQEDVENVVHTAKSVRVRDEHRVLHVIPQEYAIDYQEGIKNPVGLSGVRMQAKVHLITCHNDMAKNIVKAVERCGLKVDQLIFAGLASSYSVLTEDERELGVCVVDIGGGTMDIAVYTGGALRHTKVIPYAGNVVTSDIAYAFGTPPSDAEAIKVRHGCALGSIVGKDESVEVPSVGGRPPRSLQRQTLAEVIEPRYTELLNLVNEEILQLQEKLRQQGVKHHLAAGIVLTGGAAQIEGLAACAQRVFHTQVRIGAPLNITGLTDYAQEPYYSTAVGLLHYGKESHLNGEAEVEKRVTASVGSWIKRLNSWLRKEF
Take B4: the “fold change of barcode share” value was less than 0.0152.

B5: ftsA V58D (protein)
chain: B4 chain with Q57V, V58D
As for B5, the “fold change of barcode share” value is 0.00904 ± 0.0037.

B6: ftsA V58A (protein)
chain: B4 chain with Q57V, V58A
For the protein B6, the “fold change of barcode share” value was 0.011 ± 0.0095.

B7: ftsA L382A (protein)
chain: B4 chain with Q57V, L382A
Take B7: the “fold change of barcode share” value is less than 0.0177.

Values taken from the supplement of paper PMC11876631.
